# Data from ChEMBL document CHEMBL5512621, “Overview of the development of protein arginine methyltransferase modulators: Achievements and future directions” (Eur J Med Chem, 2024).
# Numbered stars: 1 amine (or outer) side, 2 acyl side, 3 side chain; on linkers, the order of the positions; unused ones are H or OH. Square brackets hold non-standard residues; d marks the D form. Peptide text beside a SMILES is read from it. X1 = N=C(NCCC[C@H](N[*:1])C(=O)[*:2])NCCC[C@H]1O[C@@H](n2cnc3c(N)ncnc32)[C@H](O)[C@@H]1O
# Experiments:
# [1] = Inhibition of PRMT3 (unknown origin) using histone H4 substrate in presence of 3H-SAM by Topcount scintillation counting method; design: species or system Homo sapiens
# [2] = molecular target: T1, Protein arginine N-methyltransferase 5 (Homo sapiens, UniProt O14744); assay: Inhibition of PRMT5 (unknown origin)
# [3] = molecular target: T1, Protein arginine N-methyltransferase 5; assay: Inhibition of human PRMT5 (unknown origin)
# [4] = Inhibition of cell growth in mouse Th1 cells; assay type: functional, cell-based
# [5] = Inhibition of cell growth in mouse Th2 cells; assay type: functional, cell-based
# [6] = molecular target: PRMT5/MEP50 complex (Homo sapiens, UniProt O14744); assay: Inhibition of PRMT5/MEP50 (unknown origin) using H4 peptide as substrate incubated for 25 mins in presence of [3H]-SAM by liquid scintillation counter method; assay type: protein-complex assay
# [7] = molecular target: T2, Histone-arginine methyltransferase CARM1 (Homo sapiens, UniProt Q86X55); assay: Inhibition of PRMT4 (unknown origin)
# T2 sequence (Q86X55 whole entry): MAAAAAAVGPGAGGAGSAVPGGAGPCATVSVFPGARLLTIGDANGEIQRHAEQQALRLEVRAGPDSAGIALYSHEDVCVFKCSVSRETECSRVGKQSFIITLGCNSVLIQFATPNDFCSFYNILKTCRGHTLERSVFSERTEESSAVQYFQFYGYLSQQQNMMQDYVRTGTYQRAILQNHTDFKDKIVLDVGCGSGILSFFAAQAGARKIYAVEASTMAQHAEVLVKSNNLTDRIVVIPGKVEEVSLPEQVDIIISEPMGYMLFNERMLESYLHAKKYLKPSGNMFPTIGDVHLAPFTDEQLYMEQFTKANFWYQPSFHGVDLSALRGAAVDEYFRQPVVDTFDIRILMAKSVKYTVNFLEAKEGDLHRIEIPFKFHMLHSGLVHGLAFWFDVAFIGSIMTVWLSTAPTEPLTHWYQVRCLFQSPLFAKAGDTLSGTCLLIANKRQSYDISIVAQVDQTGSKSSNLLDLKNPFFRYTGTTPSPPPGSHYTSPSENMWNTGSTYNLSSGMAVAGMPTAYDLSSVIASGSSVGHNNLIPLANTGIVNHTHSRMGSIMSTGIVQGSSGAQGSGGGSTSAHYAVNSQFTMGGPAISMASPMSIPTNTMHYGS
# [8] = molecular target: T3, Protein arginine N-methyltransferase 1 (Homo sapiens, UniProt Q99873); assay: Inhibition of human PRMT1
# T3 sequence (Q99873 whole entry, the tested form may be a part): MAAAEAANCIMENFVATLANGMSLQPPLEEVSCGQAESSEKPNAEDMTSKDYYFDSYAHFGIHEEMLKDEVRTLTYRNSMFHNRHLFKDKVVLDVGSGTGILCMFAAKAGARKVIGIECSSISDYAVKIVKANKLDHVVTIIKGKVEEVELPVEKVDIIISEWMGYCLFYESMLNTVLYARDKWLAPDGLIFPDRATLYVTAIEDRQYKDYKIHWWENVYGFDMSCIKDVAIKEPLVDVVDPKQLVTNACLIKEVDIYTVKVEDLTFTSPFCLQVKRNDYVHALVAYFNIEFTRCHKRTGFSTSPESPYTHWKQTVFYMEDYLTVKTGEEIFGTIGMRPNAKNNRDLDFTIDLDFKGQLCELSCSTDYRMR
# [9] = molecular target: T2, Histone-arginine methyltransferase CARM1; assay: Inhibition of flag-tagged PRMT4 (2 to 585 residues) (unknown origin) expressed in HEK293F cells preincubated for 30 mins followed by biotinylated substrate and SAM addition by Topcount reader assay; assay type: cell-based
# [10] = molecular target: T4, Protein arginine N-methyltransferase 7 (Homo sapiens, UniProt Q9NVM4); assay: Inhibition of PRMT7 (unknown origin)
# T4 sequence (Q9NVM4 whole entry): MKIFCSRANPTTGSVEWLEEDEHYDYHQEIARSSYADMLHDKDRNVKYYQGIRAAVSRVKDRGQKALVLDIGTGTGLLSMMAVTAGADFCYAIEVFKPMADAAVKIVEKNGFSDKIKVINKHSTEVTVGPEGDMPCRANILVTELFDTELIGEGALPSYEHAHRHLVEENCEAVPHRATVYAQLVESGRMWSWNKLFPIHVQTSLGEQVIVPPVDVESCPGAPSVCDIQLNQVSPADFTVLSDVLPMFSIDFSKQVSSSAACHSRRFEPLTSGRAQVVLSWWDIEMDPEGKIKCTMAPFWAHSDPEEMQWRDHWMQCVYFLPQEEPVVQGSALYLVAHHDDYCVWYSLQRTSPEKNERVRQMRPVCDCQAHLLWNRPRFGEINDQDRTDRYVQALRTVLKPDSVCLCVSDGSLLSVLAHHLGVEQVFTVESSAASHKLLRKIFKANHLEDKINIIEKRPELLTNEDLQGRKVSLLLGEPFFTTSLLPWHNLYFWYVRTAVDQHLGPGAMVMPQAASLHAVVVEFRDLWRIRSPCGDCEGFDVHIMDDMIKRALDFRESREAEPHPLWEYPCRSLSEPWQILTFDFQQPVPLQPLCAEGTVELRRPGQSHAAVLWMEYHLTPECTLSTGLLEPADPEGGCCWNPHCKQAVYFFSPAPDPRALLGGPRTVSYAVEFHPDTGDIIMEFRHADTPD
# [11] = molecular target: T5, Protein arginine N-methyltransferase 9 (Homo sapiens, UniProt Q6P2P2); assay: Inhibition of PRMT9 methylation (unknown origin) by in-cell Western blot analysis
# T5 sequence (Q6P2P2 whole entry): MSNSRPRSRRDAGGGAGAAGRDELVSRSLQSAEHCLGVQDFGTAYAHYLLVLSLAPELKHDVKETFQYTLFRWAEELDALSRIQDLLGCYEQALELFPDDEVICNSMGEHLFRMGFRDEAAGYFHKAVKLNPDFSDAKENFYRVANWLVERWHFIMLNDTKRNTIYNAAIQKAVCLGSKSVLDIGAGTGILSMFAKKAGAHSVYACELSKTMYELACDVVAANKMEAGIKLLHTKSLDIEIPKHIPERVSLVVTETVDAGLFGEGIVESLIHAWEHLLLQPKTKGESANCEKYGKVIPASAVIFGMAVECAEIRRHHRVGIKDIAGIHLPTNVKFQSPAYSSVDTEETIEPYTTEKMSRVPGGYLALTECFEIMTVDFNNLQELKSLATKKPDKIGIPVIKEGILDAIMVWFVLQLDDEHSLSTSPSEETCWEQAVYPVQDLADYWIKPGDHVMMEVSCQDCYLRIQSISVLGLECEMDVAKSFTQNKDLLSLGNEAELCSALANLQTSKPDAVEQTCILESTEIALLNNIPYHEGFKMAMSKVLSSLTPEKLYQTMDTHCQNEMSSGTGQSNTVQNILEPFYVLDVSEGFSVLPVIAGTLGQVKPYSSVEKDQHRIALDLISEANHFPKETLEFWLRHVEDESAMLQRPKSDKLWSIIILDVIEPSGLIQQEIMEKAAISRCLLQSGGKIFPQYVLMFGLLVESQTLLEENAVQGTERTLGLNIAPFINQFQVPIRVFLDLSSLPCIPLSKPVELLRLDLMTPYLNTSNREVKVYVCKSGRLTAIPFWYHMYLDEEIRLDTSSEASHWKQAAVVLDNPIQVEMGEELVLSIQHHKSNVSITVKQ
# [12] = molecular target: T5, Protein arginine N-methyltransferase 9; assay: Inhibition of PRMT9 (unknown origin)
# [13] = molecular target: T1, Protein arginine N-methyltransferase 5; assay: Inhibition of PRMT5 methylation (unknown origin) by in-cell Western blot analysis
# [14] = molecular target: T1, Protein arginine N-methyltransferase 5; assay: Inhibition of full-length PRMT5 (unknown origin) expressed in insect cells coexpressing 6His-tagged MEP50 using histone H4 peptide as substrate incubated for 4 hrs by fluorescence polarization assay; design: species or system Insect cell
# [15] = molecular target: T3, Protein arginine N-methyltransferase 1; assay: Inhibition of PRMT1 (unknown origin) using histone substrate in presence of SAM by luminescence based microplate reader assay
# [16] = molecular target: Protein arginine N-methyltransferase 3 (Homo sapiens, UniProt O60678); assay: Inhibition of PRMT3 (unknown origin)
# Chain of UniProt O60678 (O60678 whole entry): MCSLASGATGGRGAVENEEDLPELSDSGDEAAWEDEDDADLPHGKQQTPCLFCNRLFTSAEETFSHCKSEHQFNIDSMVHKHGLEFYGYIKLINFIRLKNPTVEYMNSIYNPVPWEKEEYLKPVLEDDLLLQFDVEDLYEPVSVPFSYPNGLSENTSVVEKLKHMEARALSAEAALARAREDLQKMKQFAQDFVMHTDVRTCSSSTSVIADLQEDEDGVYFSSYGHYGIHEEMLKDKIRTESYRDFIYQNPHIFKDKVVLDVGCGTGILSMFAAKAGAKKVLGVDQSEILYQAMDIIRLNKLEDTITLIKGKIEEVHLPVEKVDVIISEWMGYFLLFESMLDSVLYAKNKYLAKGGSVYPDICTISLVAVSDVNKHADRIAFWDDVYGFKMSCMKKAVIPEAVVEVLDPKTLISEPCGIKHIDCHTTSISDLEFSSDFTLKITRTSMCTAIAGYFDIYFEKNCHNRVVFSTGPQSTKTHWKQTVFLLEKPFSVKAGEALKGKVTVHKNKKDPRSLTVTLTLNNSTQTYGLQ
# [17] = Oral bioavailability in mouse at 1 mg/kg; assay type: ADME, organism-based; details: in vivo
# [18] = Cmax in mouse at 1 mg/kg, po; assay type: ADME, organism-based; details: in vivo
# [19] = AUC(0 to t) in mouse at 1 mg/kg, po; assay type: ADME, organism-based; details: in vivo
# [20] = molecular target: T4, Protein arginine N-methyltransferase 7; assay: Inhibition of full-length PRMT7 (unknown origin) expressed in Sf9 cells using biotinylated H2B as substrate incubated for 60 mins in presence of 3H-SAM by Topcount plate reader analysis
# [21] = molecular target: T4, Protein arginine N-methyltransferase 7; assay: Inhibition of PRMT7 (unknown origin) assessed as reduction in HSPA8 methylation
# [22] = Inhibition of type I PRMTs (unknown origin); design: species or system Homo sapiens
smiles,measurement,setting,value
O=C(NCC(=O)N1CCCC1)Nc1ccc2cnccc2c1,IC50,[1],30 nM
COc1ccc2[nH]c(SCC(=O)Nc3ccccc3C(C)=O)nc2c1,IC50,[2],330 nM
CCn1c2ccccc2c2cc(CNCc3ccccn3)ccc21,IC50,[3],< 50000 nM
CCn1c2ccc(Br)cc2c2cc(CNCc3ccccc3OC)ccc21,IC50,[4],1100 nM
same,IC50,[5],4000 nM
Nc1ncnc2c1ccn2[C@@H]1O[C@H]([C@H](O)c2ccc(Cl)c(F)c2)[C@@H](O)[C@H]1O,IC50,[6],1.4 nM
CNC[C@H](O)CN1CCc2c(cccc2OCc2ccc(-c3nccs3)cc2)C1,IC50,[7],21 nM
Nc1ncnc2c1ccn2[C@@H]1O[C@H]([C@H](O)c2ccc(Cl)cc2)[C@@H](O)[C@H]1O,IC50,[6],10 nM
CNC(=N)NCCCNC(=O)Nc1ccc2cc(C(=O)OC)cc(O)c2c1,IC50,[8],200 nM
CNC[C@@H](O)COc1ccc(Cl)c(-c2nc(-c3c(C)noc3C)c(C)c(N3Cc4cnc(N5CCC5)nc4C3)n2)c1,IC50,[9],3 nM
Cc1cc(N)c2cc(Nc3nc(-c4ccc5c(c4)OCCO5)ncc3F)ccc2c1,IC50,[10],2500 nM
CNCCN(C)Cc1ccccc1OCc1cccc(Cl)c1Cl,IC50,[7],18 nM
Cc1cn([C@@H]2O[C@H](CSCCNCc3cccnc3C(C)(C)C)[C@@H](O)[C@H]2O)c2ncnc(N)c12,IC50,[11],145 nM
same,IC50,[12],10 nM
same,IC50,[2],30 nM
same,IC50,[13],519 nM
CCOc1cnc(CC2CCN(C(C)=O)CC2)cc1C(=O)NC[C@@H](O)[C@@H]1CC2CCCCC2CN1 (some centres not stated),IC50,[14],202 nM
CC(C)c1cc(O[C@H]2C[C@@H](n3ccc4cncnc43)[C@H](O)[C@@H]2O)c2c(c1F)CCN2,IC50,[2],1.1 nM
N=C(N)c1ccc(Nc2ncnc(Nc3ccc(C(=N)N)cc3)c2[N+](=O)[O-])cc1,IC50,[15],2400 nM
Cc1cc(N)c2cc(Nc3nc(-c4cc5ccccc5o4)ncc3F)ccc2c1,IC50,[10],2400 nM
N=C(N)NCCC[C@H](N)C(=O)NCC(=O)N[C@@H](CCNC(=N)NCCCSC[C@H]1O[C@@H](n2cnc3c(N)ncnc32)[C@H](O)[C@@H]1O)C(N)=O,IC50,[2],0.42 nM
same,IC50,[7],2.8 nM
CN(CCN)Cc1ccccc1OCc1ccc(Cl)cc1Cl,IC50,[16],< 10000 nM
CC(=O)N1CCC(Nc2cc(C(=O)NC[C@@H](O)CN3CCc4ccccc4C3)ncn2)CC1,bioavailability,[17],80.7%
same,Cmax,[18],1050 ng/mL
same,AUC(0-t),[19],3450 ng·h/mL
CC(=O)N1CCC(Oc2nccc(C(=O)NC[C@@H](O)[C@@H]3CC4CCCCC4CN3)c2Cl)CC1 (some centres not stated),IC50,[14],26 nM
Nc1ncnc2c1ncn2[C@@H]1O[C@H](CSCCCNCc2ccc(-c3ccccc3)cc2)[C@@H](O)[C@H]1O,IC50,[20],< 2.5 nM
Nc1ncnc2c1ncn2[C@@H]1O[C@H](CSCCCCNCc2ccc(-c3ccc(Cl)cc3)cc2)[C@@H](O)[C@H]1O,IC50,[20],< 2.5 nM
same,IC50,[21],294 nM
CNCCN(C)Cc1c[nH]nc1-c1ccc(Oc2ccccc2)cc1,IC50,[16],< 10000 nM
Cc1cc(N)c2cc(Nc3nc(-c4ccc5c(c4)OCO5)ncc3F)ccc2c1,IC50,[10],2300 nM
C=CC(=O)NCc1ccc(-c2ccc3[nH]nc(CN(C)CCN)c3c2)cc1,IC50,[16],< 10000 nM
NC[C@@H](CC[C@H](N)C(=O)O)C[C@H]1O[C@@H](n2cnc3c(N)ncnc32)[C@H](O)[C@@H]1O,IC50,[22],13 nM
Nc1ncnc2c1ncn2[C@@H]1O/C(=C\C(N)CC[C@H](N)C(=O)O)[C@@H](O)[C@H]1O (some centres not stated),IC50,[2],22.5 nM
CSCC[C@H](NC(=O)[C@@H](NC(=O)[C@H](CO)NC(=O)[C@H](Cc1ccccc1)NC(=O)[C@@H]1CCCN1C(=O)[C@@H]1CCCN1C(=O)[C@H](CCCNC(=N)NCCC[C@H]1O[C@@H](n2cnc3c(N)ncnc32)[C@H](O)[C@@H]1O)NC(=O)[C@@H]1CCCN1C(=O)[C@H](C)NC(=O)[C@H](C)NC(=O)[C@@H]1CCCN1C(C)=O)[C@@H](C)O)C(=O)O (Ac-PAAP[X1]PPFSTM-OH),IC50,[7],90 nM
Nc1ncnc2c1ncn2[C@@H]1O[C@H](C[C@@H](N)CC[C@H](N)C(=O)O)[C@@H](O)[C@H]1O [SINEFUNGIN],IC50,[7],1750 nM
